Reference: PubChem BioAssay AID493208 (National Center for Advancing Translational Sciences (NCATS), 2011)
Out of some 44,000 compounds screened, about 340 (0.77%) were called active. Another 5% or so got no clear call; they are omitted. Calls follow the shape of the dose curve; as a rule, active = well fitted inhibition curve with a large enough effect; inconclusive = small, poorly fitted or top-dose-only effect; inactive = flat fitted curve, though single readings scatter. The list shows a part of the results.

Assay: Acumen qHTS Assay for Inhibitors of the mTORC1 Signaling Pathway in MEF (Tsc2-/-, p53-/-) Cells: Sytravon;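 also: plate controls were DMSO for no effect and rapamycin for full effect; nearly all actives have a fitted effect of over 50% in size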
Conditions: phospho-rpS6 immunofluorescence/PI, 24 h; series mostly up to 38.3 µM; activity change, negative = inhibition: at the top concentration
Summary of the method: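 Tsc2-/-, p53-/- mouse embryonic fibroblasts (empty-vector line) exposed to compound 24 hrs at 37 C, fixed, immunostained for phospho-rpS6 and counterstained with propidium iodide. Acumen laser scanning gives % positive cells from Alexa 488/PI ratio, thresholded using 7.5 nM rapamycin; PI count gives viability.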

Activity change, negative = inhibition, inactive:
CSc1ncc(C(=O)N2CCN(c3cc(Cl)ccc3C)CC2)c(C)n1 -5.59%, CCCN(C(=O)CCc1nc(-c2ccc(OC)cc2)no1)c1ccccc1F -1.01%, COc1cc(-c2nc(Cn3nnc(C(=O)Nc4ccc(C)cc4C)c3C)c(C)o2)cc(OC)c1OC 2.48%, Cc1oc(-c2ccccc2F)nc1CS(=O)(=O)CC(=O)NCCc1ccc(Cl)cc1 -9.1%, COc1ccc(N2CCN(c3oc(-c4ccc(COc5cccc(C)c5)o4)nc3C#N)CC2)cc1 -5.97%, COc1ccc(CC(=O)NCCc2csc3nc(-c4ccccc4F)nn23)cc1 -14.9%, Cc1ccc(NC(=O)CN(C)S(=O)(=O)c2ccc3[nH]c4c(c3c2)CCCC4)c(Cl)c1 -0.111%, Cc1cccc(NC(=O)c2sc3nc(N4CCOCC4)c4c(c3c2N)CC(C)(C)OC4)c1 -13.6%, COc1ccc(NC(=O)Cn2ncc3c2-c2ccccc2OC3)cc1Cl -2.48%, O=C(CSc1nc2c([nH]c3ccccc32)c(=O)n1-c1ccccc1)Nc1ccc2c(c1)OCCO2 -3.99%, COc1ccccc1C(=O)Nc1ccc(OCc2cc(=O)n3ccsc3n2)cc1 -5.57%, CCN(CCCNC(=O)c1cc2c(Cl)nc3ccccc3c2s1)Cc1ccccc1 -26%, Cc1ccc(C)c2sc(N3CCN(C(=O)C(C)(C)C)CC3)nc12 -8.99%, CCOc1ccc(CCNC(=O)c2ccc(-n3c(C)cc4c3CCC(C)C4)cc2)cc1OCC (configuration not stated) -9.46%, CC1=C(C(=O)Nc2ccc(C)cc2Cl)C2(CCCCCC2)OC1=O -5.81%, CC(=O)N1c2ccc(S(=O)(=O)NCCC(=O)Nc3ccc(Br)c(C)c3)cc2CC1C (configuration not stated) -9.4%, CCC(=O)c1cc2c(cc1NC(=O)c1ccccc1F)OCCO2 0.315%, COc1ccc(N2CC(NC(=O)c3ccc(S(=O)(=O)N4CCOCC4)cc3)CC2=O)cc1OC (configuration not stated) -2.5%, CCCCNC(=O)C1CCC(CNS(=O)(=O)c2ccc(Cl)cc2)CC1 (configuration not stated) -8.03%, CC(C)(C)c1ccc(-c2nc(SCC(=O)Nc3ccc(Cl)cc3)[nH]c(=O)c2C#N)cc1 -7.64%, CC(=O)NCCn1c(SCC(=O)Nc2ccc(C)cc2)nc2ccccc2c1=O 1.54%, COc1cccc(-n2c(-c3cccc(F)c3)nc3c(cnn3-c3ccc(C)cc3)c2=O)c1 -14.9%, Cc1c(-c2ccc(Cl)cc2)c(=O)oc2ccc(OC(=O)N3CCOCC3)cc12 0.264%, COc1ccccc1CNC(=O)CC(c1ccc(OC)c(OC)c1)N1Cc2ccccc2C1=O (configuration not stated) 1.7%, CCc1cnc2c(c1SCC(=O)c1ccc(OC)cc1)c(=O)n(C)c(=O)n2C -0.319%, CCN(Cc1ccccc1)c1ncnc2c1nnn2C -1.92%, COc1ccc(OC)c(/C=C/C(=O)Nc2ccc(C(=O)OCCC(C)C)cc2)c1 10.8%
